Cytotoxicity call and growth inhibition call data for 19 compounds are collected here from the antibiotic and cytotoxicity screens of Wong et al. (2023).

The other results are listed elsewhere or left out.

One experiment deals with HSkMC. The experiment in a line: cytotoxicity call (relative viability < 0.9). As to conditions: 10 µM.
The next experiment concerns HepG2. The experiment in a line: cytotoxicity call (relative viability < 0.9). The following applies: 10 µM.
The subject of another experiment is S. aureus RN4220. Description: growth inhibition call (relative growth <= 0.2). As to conditions: 50 µM.

Take `Cc1cnc(C(=O)O)c[n+]1[O-]`: the cytotoxicity call with HSkMC and in the experiment on HepG2 was “inactive” throughout. In the experiment with S. aureus RN4220, the growth inhibition call is “inactive”.

With `C=CCNC(=O)[C@H]1[C@@H]2C(=O)O[C@@H](c3ccccc3)[C@@H](c3ccccc3)N2[C@@H](c2ccccc2OCCO)[C@]12C(=O)N(C(=O)OCCOC)c1ccc(C#CC3(O)CCCCCC3)cc12`, in the experiment on HSkMC, the cytotoxicity call was “inactive”. In addition, in the experiment with HepG2, the cytotoxicity call is “active”. Also, the growth inhibition call in the experiment on S. aureus RN4220 was “inactive”.

Regarding `Cc1noc(C)c1NC(=O)Nc1cccc2c1O[C@H](CN(C)C(=O)Nc1cccc3ccccc13)[C@@H](C)CN([C@@H](C)CO)C2=O`, the cytotoxicity call in the experiment with HSkMC and with HepG2 was “inactive” each time. For the same compound, the growth inhibition call in the experiment on S. aureus RN4220 was “inactive”.

Regarding `CNC[C@H]1OCCCC[C@@H](C)Oc2ccc(NC(=O)c3ccncc3)cc2C(=O)N([C@H](C)CO)C[C@H]1C`, the cytotoxicity call in the experiment with HSkMC and in the experiment on HepG2 was “inactive” in each case. Also, the growth inhibition call in the experiment on S. aureus RN4220 is “inactive”.

For `CC(C)(O/N=C(\C(=O)N[C@@H]1C(=O)N2C(C(=O)O)=C(C[N+]3(CCNC(=O)c4ccc(O)c(O)c4Cl)CCCC3)CS[C@H]12)c1csc(N)n1)C(=O)O`, the cytotoxicity call with HSkMC and in the experiment on HepG2 was “inactive” in each case. The growth inhibition call with S. aureus RN4220 was “inactive”.

Take `C[C@@H]1CN([C@@H](C)CO)C(=O)c2cc(NC(=O)CCC(F)(F)F)ccc2O[C@@H]1CN(C)Cc1ccc(C(F)(F)F)cc1`: the cytotoxicity call in the experiment on HSkMC and in the experiment on HepG2 was “inactive” throughout. Also, the growth inhibition call in the experiment on S. aureus RN4220 is “inactive”.

`Cc1noc(C)c1S(=O)(=O)Nc1ccc2c(c1)C(=O)N([C@H](C)CO)C[C@@H](C)[C@@H](CN(C)C(=O)Nc1ccc3c(c1)OCO3)O2`: the cytotoxicity call in the experiment on HSkMC and in the experiment on HepG2 was “inactive” throughout. Moreover, the growth inhibition call with S. aureus RN4220 was “inactive”.

For `COc1ccc(S(=O)(=O)Nc2ccc3c(c2)C(=O)N([C@@H](C)CO)C[C@H](C)[C@H](CN(C)C(=O)CCC(F)(F)F)OCCCC[C@@H](C)O3)cc1`, the cytotoxicity call in the experiment on HSkMC and with HepG2 was “inactive” in each case. The growth inhibition call with S. aureus RN4220 was “inactive”.

Consider `Cc1c(O)c(=O)ccn1C`, for which the cytotoxicity call with HSkMC and in the experiment with HepG2 was “inactive” in each case. Further, the growth inhibition call with S. aureus RN4220 was “inactive”.

Turning to `C[C@@H]1CN([C@@H](C)CO)C(=O)c2cc(NS(C)(=O)=O)ccc2O[C@@H](C)CCCCO[C@H]1CN(C)S(=O)(=O)c1cccs1`, the cytotoxicity call in the experiment on HSkMC and in the experiment with HepG2 was “inactive” in each case. In the experiment with S. aureus RN4220, the growth inhibition call was “inactive”.

Take `C[C@@H]1CCCCO[C@H](CN(C)Cc2ccncc2)[C@H](C)CN([C@@H](C)CO)C(=O)c2cc(NS(C)(=O)=O)ccc2O1`: the cytotoxicity call in the experiment with HSkMC and with HepG2 was “inactive” in each case. In addition, in the experiment on S. aureus RN4220, the growth inhibition call was “inactive”.

Take `C[C@@H]1CCCCO[C@@H](CN(C)C(=O)C2CCCCC2)[C@H](C)CN([C@@H](C)CO)C(=O)c2cc(NS(=O)(=O)c3ccccc3)ccc2O1`: the cytotoxicity call in the experiment on HSkMC was “inactive”. Moreover, the cytotoxicity call with HepG2 is “active”. The growth inhibition call in the experiment on S. aureus RN4220 was “inactive”.

With `CC1CC2C(C(O)CC3(C)C2CCC3(O)C(=O)CO)C2(C)C=CC(=O)C=C12` (configuration not stated), the cytotoxicity call with HSkMC and with HepG2 was “inactive” each time. In addition, the growth inhibition call with S. aureus RN4220 was “inactive”.

For `C[C@@H]1CCCCO[C@@H](CN(C)C(=O)Nc2ccc3c(c2)OCO3)[C@H](C)CN([C@H](C)CO)C(=O)c2cc(NC(=O)c3ccncc3)ccc2O1`, the cytotoxicity call in the experiment with HSkMC and in the experiment with HepG2 was “inactive” in each case. For the same compound, the growth inhibition call with S. aureus RN4220 was “inactive”.

As for `C=CCOc1nc(NCC)nc(N(C)C)n1`, the cytotoxicity call with HSkMC and in the experiment on HepG2 was “inactive” in each case. Moreover, in the experiment on S. aureus RN4220, the growth inhibition call is “inactive”.

As for `O=C1Nc2ccc(I)cc2C1=Cc1cc(Br)c(O)c(Br)c1`, the cytotoxicity call in the experiment with HSkMC and in the experiment with HepG2 was “active” throughout. In addition, the growth inhibition call in the experiment on S. aureus RN4220 was “inactive”.

Turning to `CC(C)CCCC(C)C1CCC2C3CC=C4CC(=O)CCC4(C)C3CCC12C` (configuration not stated), the cytotoxicity call in the experiment with HSkMC and in the experiment on HepG2 was “inactive” throughout. The growth inhibition call in the experiment with S. aureus RN4220 was “inactive”.

For `C=C1CCC2C(CC2(C)C)C(=O)CCC1O` (configuration not stated), the cytotoxicity call with HSkMC and in the experiment on HepG2 was “inactive” in each case. For the same compound, in the experiment on S. aureus RN4220, the growth inhibition call is “inactive”.

In the case of `CC(C)NC(=O)Nc1ccc2c(c1)CC(=O)N([C@@H](C)CO)C[C@H](C)[C@@H](CN(C)C(=O)Nc1ccc3c(c1)OCO3)O2`, the cytotoxicity call in the experiment on HSkMC (human skeletal muscle cells) and with HepG2 was “inactive” throughout. In the experiment on S. aureus RN4220, the growth inhibition call is “inactive”.
